Source: article PMC5267525, “Sec3 promotes the initial binary t-SNARE complex assembly and membrane fusion” (Nature Communications, 2017)
Results are given in words; binding and its absence hold for the method and conditions named. For some of these results: Binding seen in cells or lysates may run through a third protein. Some binding calls cover weakened binding; strength is not graded here.

Sequences of proteins named here, by UniProt entry; tags and fusion partners are left off. Residues count along the entry.
UniProt P32854, residues 1-265: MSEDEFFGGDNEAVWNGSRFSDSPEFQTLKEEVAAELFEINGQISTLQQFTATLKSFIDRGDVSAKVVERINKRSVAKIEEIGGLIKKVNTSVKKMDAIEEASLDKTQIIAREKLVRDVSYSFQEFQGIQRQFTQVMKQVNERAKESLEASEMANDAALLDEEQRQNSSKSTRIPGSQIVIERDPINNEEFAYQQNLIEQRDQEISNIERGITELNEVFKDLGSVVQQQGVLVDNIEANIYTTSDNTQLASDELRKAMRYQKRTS
UniProt P19658, residues 358-623: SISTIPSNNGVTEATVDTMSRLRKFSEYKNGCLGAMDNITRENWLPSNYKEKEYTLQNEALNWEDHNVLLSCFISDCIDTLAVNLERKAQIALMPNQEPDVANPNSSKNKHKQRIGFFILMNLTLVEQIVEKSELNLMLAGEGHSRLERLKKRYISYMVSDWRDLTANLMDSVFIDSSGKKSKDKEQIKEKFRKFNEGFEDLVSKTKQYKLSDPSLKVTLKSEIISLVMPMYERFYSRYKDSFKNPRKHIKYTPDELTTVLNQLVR
UniProt P40357, residues 414-651: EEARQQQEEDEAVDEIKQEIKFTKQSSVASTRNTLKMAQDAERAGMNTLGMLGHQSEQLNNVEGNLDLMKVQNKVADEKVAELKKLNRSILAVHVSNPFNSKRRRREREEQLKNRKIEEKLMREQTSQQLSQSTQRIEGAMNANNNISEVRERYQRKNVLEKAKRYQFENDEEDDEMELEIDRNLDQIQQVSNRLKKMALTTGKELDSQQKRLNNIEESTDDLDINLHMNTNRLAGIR

Key:
[1] = target: GST-tagged cytosolic domain of Sso2 (a.a. 1–270) (yeast) (UniProt P39926); experiment: pull-down; 20 microlitres of rabbit reticulocyte lysate with [35S]-labelled in vitro translated Sec3, 2 μM GST-tagged cytosolic domains of Sso2 or Pep12; SDS-PAGE and autoradiography; only the target purified
[2] = target: GST-tagged cytosolic domain of Pep12 (a.a. 1–265) (yeast) (UniProt P32854); experiment: as above
[3] = target: T1, GST-Sec3N (Sec3 N-terminus, a.a. 1–320) (yeast, UniProt P33332 1-320); experiment: pull-down; GST-Sec3N on glutathione Sepharose with His6-Sso2 or His6-Sec9C, or with both in three orders of addition (simultaneous; Sec3N and Sso2 pre-incubated 30 min; Sso2 and Sec9C pre-incubated 2 h); 5 μg His6-Sec9C; Coomassie blue; both purified
T1 construct: Sec3, yeast exocyst subunit, N-terminus a.a; 1-320; also called pG1860; source: E. coli BL21(DE3), purified (Glutathione Sepharose 4B)
T1 sequence (looked up): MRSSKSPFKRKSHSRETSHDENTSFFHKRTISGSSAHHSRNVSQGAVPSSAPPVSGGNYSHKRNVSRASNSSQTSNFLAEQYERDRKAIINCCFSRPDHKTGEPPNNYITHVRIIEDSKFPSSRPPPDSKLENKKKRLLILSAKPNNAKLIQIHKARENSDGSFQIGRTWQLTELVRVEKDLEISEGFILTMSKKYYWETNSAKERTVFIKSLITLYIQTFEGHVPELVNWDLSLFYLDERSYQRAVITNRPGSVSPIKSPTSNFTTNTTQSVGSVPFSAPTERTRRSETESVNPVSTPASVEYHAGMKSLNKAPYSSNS

[4] = target: Sso2 reconstituted in liposomes (yeast) (UniProt P39926); experiment: co-sedimentation; liposomes containing Sso2 incubated with Sec9C in the presence or absence of Sec3N at 25 °C for 30 min; liposomes collected by sedimentation; SDS-PAGE, Coomassie blue; Sso2-free liposomes as control; both purified
[5] = target: myc-tagged Sec3 expressed under the endogenous SEC3 promoter (yeast) (UniProt P33332); experiment: co-IP; yeast cell lysates of a strain with Sec3-myc, anti-myc antibodies; Sso2 detected by the anti-Sso2 antibody; untagged strain as control
[6] = target: GST-tagged Exo70 fragment (a.a. 358–623) (yeast) (UniProt P19658); experiment: pull-down; GST fusion proteins (12 μg) coupled to glutathione Sepharose 4B; His6-Sso2 2 μM added, 25 °C for 2 h; three washes in PBS; SDS-PAGE, Coomassie blue; both purified

Molecule: Full-length Sec3, in vitro translated (from UniProt P33332 1-1336)
- binding [1]: binds
- binding [2]: no binding (tested: 2 μM GST-Pep12)

Molecule: His6-Sec9C (a.a. 414–651) (from UniProt P40357 414-651) (domain or fragment)
- binding [3]: no binding (tested: 5 μg of His6-tagged Sec9C)

Molecule: Sec9C used in liposome assays (from UniProt P40357 414-651) (domain or fragment)
- binding [4]: binds

Molecule: Sso2 (endogenous, yeast lysate) (from UniProt P39926 1-295)
- binding [5]: binds

Molecule: Sso2–Sec9C binary t-SNARE complex (His6-Sso2 and His6-Sec9C pre-incubated) (from UniProt P39926 1-270; P40357 414-651)
- binding [3]: no binding

B1: His6-Sso2 (cytosolic domain, a.a. 1–270) (domain or fragment, yeast, UniProt P39926 1-270, looked up)
chain: MSNANPYENNNPYAENYEMQEDLNNAPTGHSDGSDDFVAFMNKINSINANLSRYENIINQIDAQHKDLLTQVSEEQEMELRRSLDDYISQATDLQYQLKADIKDAQRDGLHDSNKQAQAENCRQKFLKLIQDYRIIDSNYKEESKEQAKRQYTIIQPEATDEEVEAAINDVNGQQIFSQALLNANRRGEAKTALAEVQARHQELLKLEKTMAELTQLFNDMEELVIEQQENVDVIDKNVEDAQQDVEQGVGHTNKAVKSARKARKNKIRC
notes: Sso2, yeast t-SNARE, cytosolic domain a.a; 1-270; also called pG707
- binding [6]: no binding (tested: 2 μM His6-Sso2)
